This is an account of results in the supplement of paper PMC3334620.

Whole data set: some 33,000 sequences, median “E-score (-0.5 to 0.5)” near -0.012, cut for the highest 2% near 0.29. The list shows a part of the results.

This assay concerns the target T1, Ybr033w (UniProt P38073).
T1 sequence: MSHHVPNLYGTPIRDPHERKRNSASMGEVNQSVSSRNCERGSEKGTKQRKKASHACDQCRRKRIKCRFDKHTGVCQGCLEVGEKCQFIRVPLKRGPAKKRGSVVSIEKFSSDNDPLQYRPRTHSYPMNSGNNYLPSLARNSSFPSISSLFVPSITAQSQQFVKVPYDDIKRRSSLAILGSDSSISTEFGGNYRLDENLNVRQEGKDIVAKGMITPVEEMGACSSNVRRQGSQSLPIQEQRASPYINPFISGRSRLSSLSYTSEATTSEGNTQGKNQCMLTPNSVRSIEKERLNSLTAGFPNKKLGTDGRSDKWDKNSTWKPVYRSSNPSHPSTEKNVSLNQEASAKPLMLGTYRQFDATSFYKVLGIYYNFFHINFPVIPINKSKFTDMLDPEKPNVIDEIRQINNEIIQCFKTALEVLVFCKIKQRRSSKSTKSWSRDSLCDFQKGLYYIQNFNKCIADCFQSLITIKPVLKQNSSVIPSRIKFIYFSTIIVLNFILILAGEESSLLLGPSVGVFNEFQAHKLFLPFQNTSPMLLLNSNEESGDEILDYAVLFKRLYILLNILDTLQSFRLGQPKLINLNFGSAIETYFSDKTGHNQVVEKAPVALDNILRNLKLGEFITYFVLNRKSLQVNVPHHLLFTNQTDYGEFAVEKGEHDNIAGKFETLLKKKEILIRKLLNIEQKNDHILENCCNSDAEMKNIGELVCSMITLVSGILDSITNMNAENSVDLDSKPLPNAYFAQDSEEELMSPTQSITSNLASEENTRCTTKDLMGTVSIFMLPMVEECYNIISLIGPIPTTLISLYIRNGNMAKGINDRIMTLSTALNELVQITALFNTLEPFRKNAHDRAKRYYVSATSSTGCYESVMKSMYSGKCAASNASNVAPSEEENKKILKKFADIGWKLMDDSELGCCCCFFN
As to the kind of experiment: PBM E-score (8-mer binding enrichment) (E-score (-0.5 to 0.5)); higher = stronger / more preferred TF binding; most listed sequences are background and not binding sites. Particulars: protein concentration: 200 nM; construct: GST-full length. A digest of the protocol: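 Universal all-10-mer Agilent arrays, double-stranded by primer extension on fresh or once-stripped slides, were probed with about 100-200 nM GST-tagged yeast transcription factors made by PURExpress. Fluorescent anti-GST detected bound protein, and masliner normalised the scans. E-scores from the Universal PBM Analysis Suite were given to each ungapped eight-base word pooled with its reverse complement.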
ATGACTGG: the “PBM E-score” value was -0.17.

On to GCGGCGGA, for which the “PBM E-score” value was determined as 0.0283.

As for CCTACCGC, the “PBM E-score” value was -0.292.

Consider AGGTGTTC, for which the “PBM E-score” value was -0.169.

As for CAGGGGGG, the “PBM E-score” value is -0.39.

Regarding AGCTATTG, the “PBM E-score” value is 0.144.

For AAGAAGAA, the “PBM E-score” value was 0.185.

With GCGATATA, the “PBM E-score” value stood at 0.0771.

Turning to ATGTCGCA, the “PBM E-score” value turned out to be 0.0279.

On to ATACGCGC, for which the “PBM E-score” value came to 0.00516.

Regarding AGTCGTTG, the “PBM E-score” value is -0.271.

In the case of CGGAACAC, the “PBM E-score” value is 0.16.

On to CAGAGGGA, for which the “PBM E-score” value is -0.0678.

Turning to TAATGCCA, the “PBM E-score” value was found to be 0.0326.

Turning to GCCTCAAC, the “PBM E-score” value is -0.107.

Take CGATGCAG: the “PBM E-score” value is -0.179.

On to ATACTTAC, for which the “PBM E-score” value came out at 0.159.

In the case of GAATCAAA, the “PBM E-score” value stood at 0.0784.

Regarding ACTTCCTG, the “PBM E-score” value turned out to be 0.0249.

In the case of AGTTGTCA, the “PBM E-score” value was 0.132.

Turning to TAGACACA, the “PBM E-score” value was -0.00152.

Regarding TCTATCCA, the “PBM E-score” value stood at 0.0807.

With ATAAGGGG, the “PBM E-score” value is -0.164.

For the sequence ACTTATCA, the “PBM E-score” value is 0.0271.

Take CCAAAGTC: the “PBM E-score” value is -0.0294.

For the sequence CGTTTTGC, the “PBM E-score” value was -0.146.

Consider GGCTGGAA, for which the “PBM E-score” value is -0.0219.

Take ATGTGTCC: the “PBM E-score” value was -0.0776.

On to AACTAAGT, for which the “PBM E-score” value is 0.0846.

For the sequence CGTGAGAG, the “PBM E-score” value was -0.375.

For the sequence GGCCAAGA, the “PBM E-score” value is -0.16.

With CCTTCACG, the “PBM E-score” value was -0.0929.

As for CCCTGCAG, the “PBM E-score” value was -0.144.

As to CAAAAACC, the “PBM E-score” value was 0.287.

As to GCATTACA, the “PBM E-score” value is -0.0605.

For the sequence CTCGCACA, the “PBM E-score” value was -0.119.

Take GCTGGGGA: the “PBM E-score” value is -0.222.

Consider CTGACAGC, for which the “PBM E-score” value was -0.101.

In the case of GATAGGAC, the “PBM E-score” value is -0.188.

Turning to ACATCACT, the “PBM E-score” value worked out at 0.137.

With CATCAACG, the “PBM E-score” value worked out at 0.162.

For GGGTTAGA, the “PBM E-score” value was -0.221.

For CAGCAATC, the “PBM E-score” value came to 0.019.

With ACGACATG, the “PBM E-score” value worked out at 0.0526.

For the sequence TGGTACCA, the “PBM E-score” value was -0.0359.

As for CTATTCAC, the “PBM E-score” value was determined as 0.148.

Regarding AAAACCCG, the “PBM E-score” value was 0.146.

With CAAGAAGA, the “PBM E-score” value was 0.137.

AAGAGTGT: the “PBM E-score” value was 0.0841.

On to CACGAACC, for which the “PBM E-score” value was -0.0948.

For the sequence AACATGAT, the “PBM E-score” value turned out to be 0.198.

For the sequence AAACACAC, the “PBM E-score” value was 0.103.

Take TAATCCTA: the “PBM E-score” value stood at 0.185.

For AAGCGATC, the “PBM E-score” value came out at 0.102.

For the sequence ACCTACAT, the “PBM E-score” value amounted to 0.0343.

Regarding ACGGTACT, the “PBM E-score” value was -0.0218.

For the sequence GGATAGAC, the “PBM E-score” value is -0.105.

Take GGGGCTAC: the “PBM E-score” value is -0.244.

In the case of CGCAAGAG, the “PBM E-score” value was -0.113.

For AAAATAAC, the “PBM E-score” value stood at 0.189.

Turning to AGCACACG, the “PBM E-score” value was -0.0988.

Regarding CACGTGAA, the “PBM E-score” value is -0.0657.

Turning to CGCCGAAA, the “PBM E-score” value is -0.048.

On to CGGACATC, for which the “PBM E-score” value was -0.111.

For the sequence TATGGAAA, the “PBM E-score” value is 0.242.

CCTACTAG: the “PBM E-score” value worked out at 0.0507.

Regarding CAGGATCA, the “PBM E-score” value came to 0.0474.

As for CAGGGTAA, the “PBM E-score” value was 0.015.

Consider GGTCAAGA, for which the “PBM E-score” value was -0.0424.

Take AGTGGATC: the “PBM E-score” value worked out at 0.0532.

Turning to ATATGGCG, the “PBM E-score” value amounted to 0.0393.

As to CGCGGACC, the “PBM E-score” value is -0.187.

As to CGGGATCA, the “PBM E-score” value worked out at 0.044.

Turning to AAGTACGT, the “PBM E-score” value was 0.148.

Turning to ATCGCTTG, the “PBM E-score” value is -0.0992.

Regarding AGCCCAAT, the “PBM E-score” value was -0.125.

As for ACGAATGC, the “PBM E-score” value worked out at 0.0238.

As for GTCGGCAC, the “PBM E-score” value was -0.0718.

ACTTTTCA: the “PBM E-score” value is 0.182.

As for CCTTTGTA, the “PBM E-score” value was -0.0461.

On to CCACTGGG, for which the “PBM E-score” value is -0.308.

In the case of AGGCAATC, the “PBM E-score” value was determined as 0.0764.

Regarding ACGATCAT, the “PBM E-score” value turned out to be 0.0806.

Take CAGACAGA: the “PBM E-score” value turned out to be 0.00803.

With CATCCCAA, the “PBM E-score” value worked out at 0.0994.

Turning to GGTACGAC, the “PBM E-score” value is -0.0943.

Regarding ACTTTCAG, the “PBM E-score” value turned out to be 0.0141.

For GCACTCCA, the “PBM E-score” value is -0.134.

CACTCCGC: the “PBM E-score” value is -0.027.

As to GCCGAGAC, the “PBM E-score” value was -0.224.

As to CATATCTC, the “PBM E-score” value is 0.129.

For the sequence CTCGATGC, the “PBM E-score” value was -0.115.

Consider GGCTACTA, for which the “PBM E-score” value worked out at 0.124.

Turning to ATTTATTC, the “PBM E-score” value turned out to be 0.361.
